# Data from PubChem BioAssay AID445 (National Center for Advancing Translational Sciences (NCATS), 2006).
# About 40 (0.04%) of roughly 110,000 compounds were called active. This list was built around the results that the source calls inconclusive (neither active nor inactive); the mix of calls is not that of the screen. The call rests on the fitted dose curve; in most records, active means well fitted curve in the direction sought with a large enough effect in the signal ratio (not every such curve was filed as active); inconclusive means small, poorly fitted or top-dose-only effect, or a change in a side signal; inactive means flat fitted curve, though single readings scatter; the % refers to the signal ratio. Potencies beside an inconclusive call are fits to weak or partial responses and may not hold up.
# Assay: IkB Signaling;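 on IkBa stabilization activation: 0% = basal untreated cells and 100% = reference inhibitor full response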
# Conditions: ABC-DLBCL IkBa-CBG/CBR dual luciferase ratio (green luciferase fused to IkBa over red control in OCI-Ly3 lymphoma cells), 4 h; IkBa stabilization activation: at 57.1 µM (top of the series), scaled: untreated 0%, proteasome inhibitor 100% unless noted
# Outline: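 Luminescence ratio of IκBα-fused green versus native red beetle luciferase in OCI-Ly3 cells, 4 h post-doxycycline with compound; red signal alone, scaled from basal (0%) to zero light (-100%), flagged nonspecific or cytotoxic effects.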
# Potency means the concentration at half of the fitted maximal effect.
SMILES,IkBa stabilization activation,Potency
COC(=O)c1ccc(CSc2nc(C)nc3sc(C)c(C)c23)o1,inconclusive: 1.73% [signal activator],–
Cc1ccc(C)c(N2CCN(C(=O)CCc3nnc4n(CC(C)C)c(=O)c5ccccc5n34)CC2)c1,inconclusive: 2.21% [signal inhibitor],–
O=C(c1cc(C(F)(F)F)cc(C(F)(F)F)c1)N1CCC2(CC1)CN(c1ncccn1)C2,"inactive: 2.08% [at 11.4 µM, scaled: untreated 0%, proteasome inhibitor 100%]",–
CCn1cc(C(=O)N2CCN(c3cccc(Cl)c3)CC2)c2cc(OC)c(OC)cc2c1=O,inconclusive: -0.905% [signal inhibitor],–
Cc1ccc(CN2CCc3nc(Nc4ccc5c(c4)OCCO5)ncc3C2)cc1,inconclusive: 2.13% [signal inhibitor],–
CCCCS(=O)(=O)CC(O)CSc1nc(-c2ccc(C)cc2)cc(-c2ccccc2)c1C#N (configuration not stated),inactive: -0.981%,–
O=C(Nc1ccc(F)cc1F)c1cc(-c2ccc(Cl)cc2)on1,–,"inconclusive: 1 µM [signal inhibitor, partial curve]"
CSc1ccccc1NC(=O)c1onc(C)c1Cl,inactive: 5.43%,–
CCN(CC)C(=O)Cn1c(=O)n(-c2ccc(C)c(C)c2)c(=O)c2c3c(sc21)CCCCC3,inactive: -0.252%,–
CCc1cccc(NS(=O)(=O)c2ccc(-n3cccn3)cc2)c1,inconclusive: -0.204% [signal inhibitor],–
O=c1cnn(-c2ccccc2)c(-c2ccccc2)c1,inactive: -0.3%,–
COc1ccc(NC(=O)c2ccc3c(SCC(=O)O)c4c(nc3c2)CCCC4)c(OC)c1,–,"inconclusive: 31.6 µM [signal inhibitor, single point]"
COC(=O)Oc1nsnc1N1CCOCC1,inconclusive: 6.41% [signal activator],–
O=C(NCCCN1CCN(c2ccc(F)cc2)CC1)c1cnn(-c2ccc(F)cc2)c1-n1cccc1,inconclusive: -0.373% [signal inhibitor],–
O=C(CN1C(=O)COc2ccc(S(=O)(=O)N3CCOCC3)cc21)N1CCN(c2cccc(Cl)c2)CC1,inconclusive: 1.72% [signal inhibitor],–
CC(=O)c1cccc(Nc2nc(-c3cccc(C)c3)nc3ccccc23)c1,inconclusive: 10% [signal inhibitor],–
Cc1nn(-c2ccc(N3CCCCC3)nn2)c(C)c1CCC(=O)NCc1ccc(OC(C)C)cc1,inconclusive: 6.67% [signal inhibitor],–
CC(C)[C@H](CO)Nc1nc(Nc2cccc(Cl)c2)c2ncn(C(C)C)c2n1,inconclusive: -0.974% [signal inhibitor],"inconclusive: 39.8 µM [signal inhibitor, single point]"
Cc1cc(NCCOCCO)n2ncc(-c3ccc(Cl)cc3)c2n1,inactive: 0.532%,–
Cc1ccc(NC(=O)Cn2cc(S(=O)(=O)N3CCCC3)c(S(=O)(=O)N3CCCC3)c2)cc1F,inactive: -0.104%,–
CCOc1ncccc1C(=O)OCC(=O)c1cc(C)n(Cc2ccco2)c1C,inconclusive: 2.09% [signal inhibitor],–
CC(C)=CCC/C(C)=C/COc1c2ccoc2cc2oc(=O)ccc12,"inactive: 0.715% [at 11.4 µM, scaled: untreated 0%, proteasome inhibitor 100%]",–

SMILES,IkBa stabilization activation,Potency
COc1cccc(C(=O)NCC(c2ccc(N(C)C)cc2)N2CCc3ccccc32)c1 (configuration not stated),–,"inconclusive: 39.8 µM [falling, single point]"
O=C(CSc1nnc(COc2ccccc2)n1Cc1ccco1)c1ccc(F)cc1,inconclusive: -2.24% [signal inhibitor],–
CCSc1oc(-c2ccco2)nc1S(=O)(=O)c1ccc(Br)cc1,inconclusive: 0.981% [signal inhibitor],–
Cc1ccc(NC(=O)Cn2c(=O)c3ccccc3n3nncc23)cc1,inconclusive: 9.75% [signal inhibitor],–
Cc1cc2c(SCc3ccccc3Cl)nc(N)nc2nc1C,"inactive: 1.25% [at 11.4 µM, scaled: untreated 0%, proteasome inhibitor 100%]",–
COc1ccc(CCNC[C@H](O)c2ccc(O)cc2)cc1OC,inactive: 7.24%,–
COc1ccccc1-c1cc2nc(C)c(CCC(=O)O)c(C)n2n1,–,"inconclusive: 3.98 µM [signal inhibitor, partial curve]"
CCCc1cc(=O)[nH]c(SCC(=O)N2CCN(c3ccccc3OC)CC2)n1,inconclusive: -0.401% [signal inhibitor],–
COc1cc(NC(=O)c2cc3c(s2)-c2ccccc2OC3)cc(OC)c1OC,inconclusive: -0.936% [signal inhibitor],–
Cc1cccc(N2CCN(C(=O)c3c(C)oc4ncnc(N5CCOCC5)c34)CC2)c1C,inconclusive: 0.692% [signal inhibitor],–
Cc1nn(C(=O)COc2ccccc2Br)c(C)c1Sc1ccccc1,inconclusive: 6.21% [signal inhibitor],–
COc1ccc(CCN2C(=O)N(c3ccc(C)cc3)C(=O)C2CC(=O)Nc2ccc(F)cc2)cc1 (configuration not stated),inconclusive: 0.919% [signal inhibitor],–
COCc1cc(=O)n2[nH]c(-c3cccc(Br)c3)cc2n1,–,"inconclusive: 15.8 µM [signal inhibitor, partial curve]"
COc1ccc(-c2noc(CCCC(=O)O)n2)cc1,inconclusive: -0.845% [signal inhibitor],–
COc1ccccc1OCc1ccc(C(=O)N2CCN3CCCC3C2)cc1 (configuration not stated),inconclusive: 1.91% [signal inhibitor],–
CCn1c(SCC(=O)N2c3ccccc3Sc3ccccc32)nnc1-c1ccco1,inconclusive: 1.52% [signal inhibitor],–
CCn1cnc2cc(NCc3cccc(OC)c3O)ccc21,inconclusive: 9.16% [signal activator],–
COc1ccc(-c2cn3c(n2)sc2cc(C(=O)NC4CCCCCC4)ccc23)cc1,inconclusive: 4.64% [signal inhibitor],–
Cc1cc(-c2nnco2)c(C)n1-c1ccccc1,inactive: 0.403%,–
CC(=O)c1c(C)oc2ccc(N(C(=O)Oc3ccccc3)S(=O)(=O)c3ccccc3)cc12,inactive: 3.04%,–
CC(CNC(=O)c1cc(-c2ccccc2)n[nH]1)c1ccccc1 (configuration not stated),inconclusive: 1.54% [signal inhibitor],–
O=C(c1ccc(F)cc1)N1CCC(c2nc(-c3ccc(S(=O)(=O)N4CCCC4)cc3)no2)CC1,inconclusive: 0.678% [signal inhibitor],–

SMILES,IkBa stabilization activation,Potency
COc1ccccc1N(CC(=O)Nc1ccc2c(c1)OCO2)S(=O)(=O)c1ccc(C)cc1,inconclusive: 17.6% [signal inhibitor],–
CCOc1ccc2[nH]c(=O)c(CN(Cc3ccc(C)cc3)C(=O)N3CCCC3)cc2c1,inactive: -1%,–
O=C(Cn1cnc2onc(-c3ccc(F)cc3)c2c1=O)Nc1ccc(F)c(Cl)c1,inconclusive: 0.036% [signal inhibitor],–
O=C(CN1c2ccccc2S(=O)(=O)c2ccccc21)Nc1ccccc1Cl,inconclusive: 2.4% [signal inhibitor],–
Cn1c(=O)c(-c2cc(F)cc(F)c2)nc2cnc(Oc3cccc(Cl)c3)nc21,"inactive: 0.0138% [at 11.4 µM, scaled: untreated 0%, proteasome inhibitor 100%]",–
Cn1c(C(C#N)C(=O)c2sc3ccccc3c2Cl)nc2ccccc21 (configuration not stated),inconclusive: 6.87% [signal activator],–
CCOc1ccc(S(=O)(=O)c2cn(Cc3ccccc3C)c3ccc(OC)cc3c2=O)cc1,inconclusive: 2.19% [signal inhibitor],–
CCc1nn(CC(=O)NCCCN2CCN(CC)CC2)c(=O)c2cc3occc3n12,inactive: -0.0957%,–
CCCOc1ccc(-c2nonc2NC(=O)c2oc3ccc(Cl)cc3c2C)cc1OCCC,inactive: 0.453%,–
O=C(O)CCC(=O)Nc1nc(-c2ccccc2)cs1,–,"inconclusive: 20 µM [signal inhibitor, partial curve]"
O=C(c1ccc2c(c1)N(Cc1c(F)cccc1Cl)C(=O)c1ccccc1S2)N1CCOCC1,inconclusive: -1.51% [signal inhibitor],–
CCOc1cccc(C2c3[nH]c4ccccc4c3CCN2C(=O)CSCc2ccc(F)cc2)c1 (configuration not stated),inconclusive: -0.356% [signal inhibitor],–
Cc1ccc2c(c1)c(CC(=O)Nc1ccc(C)c(F)c1)c(C(=O)O)n2C,inconclusive: 6.5% [signal inhibitor],–
Cc1ccc2nc(COc3ccccc3NC(=O)c3ccccc3F)cc(=O)n2c1,inconclusive: 0.859% [signal inhibitor],–
Fc1ccc(-c2nn3c(C4COc5ccccc5O4)nnc3s2)cc1 (configuration not stated),inconclusive: 14.2% [signal inhibitor],–
NC(=O)Cn1c(=O)n(CCCCCC(=O)NCc2ccc(F)cc2)c(=O)c2sccc21,inactive: -2.73%,–
COc1ccc(OC)c(NC(=O)CSc2ncc3c(n2)-c2ccccc2N(C)S3(=O)=O)c1,inactive: -0.509%,–
COc1ccc(-c2c3c(=O)n(C)c(=O)n(C)c3c3n2-c2ccccc2NC3c2ccc(O)cc2O)cc1 (configuration not stated),inconclusive: 0.952% [signal inhibitor],–
Cc1cc(OCCCn2c(CCNC(=O)C3CCCCC3)nc3ccccc32)ccc1Cl,inconclusive: -1.52% [signal inhibitor],–
COc1ccc(N(CC(=O)Nc2cccc(C(C)=O)c2)S(=O)(=O)c2ccccc2)c(OC)c1,inconclusive: 0.323% [signal inhibitor],–
CCOc1ccc(C(=O)N(Cc2cc(OC)c(OC)c(OC)c2)c2ccccn2)cc1,inconclusive: 0.454% [signal inhibitor],–
CCOC(=O)C1=C(C)NC(=O)NC1c1cn(-c2ccccc2)nc1-c1ccc(OC(C)C)cc1 (configuration not stated),inconclusive: 14.2% [signal inhibitor],–
